Laboratory results reported in paper PMC4336329 (PLoS ONE, 2015).
Screen size: about 310,000 compounds; about 14,000 (4.5%) showed an effect of 50% or more. The effect is printed as a negative number. The list shows a part of the results.

target: human ether-à-go-go-related gene (hERG) potassium channel (human, UniProt Q12809); experiment: primary screen, population patch clamp on CHO cells stably expressing hERG
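Further: peak tail current of the secondary pulse compared with the same well before compound.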

Chain of human ether-à-go-go-related gene (hERG) potassium channel (Q12809 whole entry, looked up): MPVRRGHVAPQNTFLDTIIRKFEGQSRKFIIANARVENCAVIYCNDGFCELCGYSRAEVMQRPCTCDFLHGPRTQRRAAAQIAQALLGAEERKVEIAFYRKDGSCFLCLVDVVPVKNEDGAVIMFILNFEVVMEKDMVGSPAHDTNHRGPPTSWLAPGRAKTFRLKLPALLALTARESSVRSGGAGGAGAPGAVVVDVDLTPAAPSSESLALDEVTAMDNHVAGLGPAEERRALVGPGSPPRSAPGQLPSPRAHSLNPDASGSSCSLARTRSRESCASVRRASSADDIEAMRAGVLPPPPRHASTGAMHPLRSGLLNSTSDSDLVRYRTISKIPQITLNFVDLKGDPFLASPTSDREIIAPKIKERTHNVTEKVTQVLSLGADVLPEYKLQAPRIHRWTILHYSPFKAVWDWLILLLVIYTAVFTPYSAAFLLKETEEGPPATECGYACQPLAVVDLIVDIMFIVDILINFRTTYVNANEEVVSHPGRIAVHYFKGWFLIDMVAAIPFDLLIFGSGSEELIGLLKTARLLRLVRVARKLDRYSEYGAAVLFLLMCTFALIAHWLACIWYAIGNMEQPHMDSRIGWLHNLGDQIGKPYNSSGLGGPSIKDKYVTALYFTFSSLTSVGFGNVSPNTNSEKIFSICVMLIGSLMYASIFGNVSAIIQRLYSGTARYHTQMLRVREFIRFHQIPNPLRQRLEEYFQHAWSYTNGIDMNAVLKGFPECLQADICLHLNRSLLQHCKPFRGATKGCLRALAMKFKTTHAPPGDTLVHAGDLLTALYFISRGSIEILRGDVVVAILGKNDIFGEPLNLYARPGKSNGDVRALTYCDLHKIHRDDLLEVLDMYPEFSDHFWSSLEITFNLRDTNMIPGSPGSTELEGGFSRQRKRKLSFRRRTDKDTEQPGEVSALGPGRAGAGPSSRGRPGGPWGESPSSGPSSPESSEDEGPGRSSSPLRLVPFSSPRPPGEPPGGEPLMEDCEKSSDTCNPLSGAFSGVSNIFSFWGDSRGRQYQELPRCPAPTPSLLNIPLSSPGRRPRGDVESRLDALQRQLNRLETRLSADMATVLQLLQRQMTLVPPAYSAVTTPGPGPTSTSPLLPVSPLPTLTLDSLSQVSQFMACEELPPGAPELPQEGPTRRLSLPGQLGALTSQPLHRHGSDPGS

| SMILES | hERG current change (%, negative = inhibition) at 10uM |
| --- | --- |
| Cn1c(=O)c2c(ncn2CCOc2ccc(F)cc2)n(C)c1=O | 12.3% |
| N#C/C(=C\c1cccs1)C(=O)c1ccccc1Cl | 6% |
| Cc1ccc(Nc2nc(N)nc(CN3CCc4ccccc4C3)n2)cc1 | -72.2% |
| COc1ccc(CCn2c(-c3ccc(Cl)cc3)n[nH]c2=S)cc1OC | 16.8% |
| COc1ccc(S(=O)(=O)N(C)C)cc1NC(=O)[C@H](Cc1ccccc1)N1C(=O)c2ccccc2C1=O | -1.8% |
| COCCn1c(Cc2ccccc2)nnc1SCC(=O)NC1CC1 | 9.47% |
| Cn1c(=O)oc2cc(S(=O)(=O)N3CCN(c4ccccc4F)CC3)ccc21 | 6.2% |
| COc1ccc(F)cc1C(=O)C1CCCN(C(=O)C2=C(C)OCCO2)C1 (stereo not shown) | 1.15% |
| N#Cc1c(-c2ccc3c(c2)OCO3)csc1N | 11.7% |
| O=C(CN(C(=O)CNC(=O)c1ccco1)c1ccc(Cl)c(Cl)c1)NC1CCCCC1 | -27.2% |
| COc1ccccc1CCc1nnc(CCC(=O)NCC[C@@H]2C[C@@H]3C=C[C@H]2C3)o1 | -22.6% |
| Cc1ccccc1-c1nc(CS(=O)(=O)CC(=O)NCc2ccc3c(c2)OCO3)c(C)o1 | 1.45% |
| COCc1cc(C)nc2sc(C(=O)Nc3ccccc3OC)c(N)c12 | 15.2% |
| Cc1ccc(/C=C(\C#N)C(=O)NC(C)C)o1 | 7.19% |
| Cc1ccc(C(=O)Nc2ccncc2)cc1S(=O)(=O)N1CCOCC1 | -4.42% |
| COC(=O)c1ccc(C(=O)NC(=S)Nc2ccc3nc(SC)sc3c2)cc1 | 7.84% |
| O=C(CN1CCC(C(=O)c2cccc(Cl)c2)CC1)Nc1cccc(C(=O)O)c1 | 12.3% |
| Oc1ccc(-c2n[nH]c(=S)n2Cc2ccccc2)cc1 | 0.371% |
| Cc1ccc(-n2ncc3c2CCCC3NC(=O)c2ccoc2)cc1C (stereo not shown) | -79.2% |
| COc1ccc(-c2[nH]ncc2CN2CCC(C(=O)N3CCOCC3)CC2)c(F)c1 | 5.23% |
| CC(=O)NN1C(=O)/C(=C\c2ccc(C)cc2)SC1=S | 17% |
| COc1ccc(OCCSc2ncnc3nc[nH]c23)cc1 | 2% |
| Cc1ccc(C(=O)C2CCN(CC(=O)Nc3ccccc3C)CC2)cc1 | -68.9% |
| Cc1c(C(C)C[C@H](C)O)oc(=O)c2c1Oc1c(C)c(C(C)C[C@H](C)O)oc(=O)c1C2 (stereo partly shown) | 12.9% |
| CCOc1ccc(N(Cc2ccc(C(=O)O)cc2)S(=O)(=O)c2ccc(C)cc2)cc1 | -12.5% |
| O=C(c1cc(C2CC2)on1)N1CCCC(N2CCN(c3cccc(C(F)(F)F)c3)CC2)C1 (stereo not shown) | -48.7% |
| O=C(CN1C(=O)NC2(CCCC2)C1=O)Nc1ccc(Cl)c(C(F)(F)F)c1 | 6.9% |
| CCSc1nnc(Cc2cc(=O)[nH]c(=O)[nH]2)n1-c1cc(C)ccc1C | 14.5% |

| SMILES | hERG current change (%, negative = inhibition) at 10uM |
| --- | --- |
| CCOC(=O)C1CCN(C(=O)Cn2cc(C(=O)OC)c3ccccc32)CC1 | 0.668% |
| Cc1ccsc1C(=O)N1CCCC(CCC(=O)N2CCN(c3ccccn3)CC2)C1 (stereo not shown) | -6.72% |
| CCc1cc(C(=O)Nc2cc(S(=O)(=O)N(CC)CC)ccc2N2CCN(C)CC2)sc1C | -7.6% |
| Cc1oc(-c2ccc3c(c2)OCCO3)cc1C(=O)NCC(=O)O | -2.8% |
| COCCNC(=O)CS(=O)Cc1nc(-c2ccc(Cl)cc2)oc1C (stereo not shown) | 7.83% |
| CCC(=O)N(CCN1CCOCC1)Cc1cc2cc3c(cc2nc1Cl)OCO3 | -21.6% |
| CC(NC(=O)C1CC1)c1ccc(-c2ccccc2)cc1 (stereo not shown) | -2.32% |
| CCOC(=O)N1CCN(Cc2nc(N)nc(Nc3ccc(C)cc3C)n2)CC1 | -16.7% |
| O=C(Nc1ccc(Nc2ccccc2)cc1)c1ccc(Br)cc1 | 9.51% |
| COc1ccc(Cl)cc1C(=O)NNC(=O)CN1C(=O)C2CC=CCC2C1=O (stereo not shown) | 14.3% |
| COc1ccc(C(=O)/C=C/N(C)C)cc1OC | 7.92% |
| Cc1cc(C(=O)CSc2nn3c(=O)c(C(C)(C)C)nnc3s2)c(C)n1C1CC1 | 22.4% |
| Cc1ccc(S(=O)(=O)N2CCN(C(=O)n3ccnc3)CC2)cc1 | -5.76% |
| Cc1ccc(NC(=O)CSc2nc(N)c3cc4c(nc3n2)CCCC4)cc1 | -2.94% |
| COC(=O)c1ccc(-n2cc(-c3ccc(OC)cc3)[nH]c2=S)cc1 | 33.1% |
| COc1ccc(S(=O)(=O)N2CCC(C(=O)NCCc3ccccc3)CC2)cc1 | 1.17% |
| CN(CCc1ccccn1)C1CCCN(S(=O)(=O)c2ccc(F)c(Cl)c2)C1 (stereo not shown) | -48% |
| CS(=O)(=O)O.Oc1ccc(C2CNCCc3c2cc(O)c(O)c3Cl)cc1 (stereo not shown) | -6.31% |
| CCOC(=O)C(NC(=O)CC)(N1CCc2ccccc2C1)C(F)(F)F (stereo not shown) | -3% |
| CCN(CC)c1ccc(/C=c2/sc3nnc(-c4ccccc4C)n3c2=O)cc1 | 8.65% |
| C(=N\Nc1ccc2nncn2n1)/c1ccccn1 | 17.9% |
| Cc1ccc2nc(-c3ccncc3)c(NC3CCCCC3)n2c1 | 9.35% |
| CCCCN1CC(=O)N2[C@H]3c4ccc(OC)cc4OC[C@@H]3[C@H](C(=O)OCC)[C@]2(C)C1=O | 7.39% |
| CNC(C)c1ccc(S(N)(=O)=O)cc1 (stereo not shown) | 25% |
| Cc1nnc(SCCC(=O)Nc2ccc(F)cc2)s1 | -3.32% |
| COc1ccc(C2C(C(C)=O)=C(O)C(=O)N2c2nc3ccccc3s2)cc1OC (stereo not shown) | 19.6% |
| O=C(O)c1cccc(NS(=O)(=O)c2ccc3c(c2)C(=O)c2ccccc2C3=O)c1 | 11.3% |
